From PubChem BioAssay AID1240 (Sanford-Burnham Center for Chemical Genomics, 2008)
In all, about 50,000 compounds went through this assay and about 800 (1.6%) showed an effect of 50% or more. The list shows a part of the results.

Each compound was assayed against Bcl-2-like protein 10 (Homo sapiens) (UniProt Q9HD36) (assay: Phenotype converters, Bcl-B/TR3 peptide binding displacement, primary biochemical FP (AID 1240;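 also: 0% = Bcl-B with tracer peptide and DMSO and 100% = tracer peptide lacking Bcl-B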)). Conditions: GST-Bcl-B / FITC-TR3 peptide fluorescence polarization; stronger effect = higher value; compound at 3.75 mg/L.
Chain of UniProt Q9HD36 (Q9HD36 whole entry, looked up): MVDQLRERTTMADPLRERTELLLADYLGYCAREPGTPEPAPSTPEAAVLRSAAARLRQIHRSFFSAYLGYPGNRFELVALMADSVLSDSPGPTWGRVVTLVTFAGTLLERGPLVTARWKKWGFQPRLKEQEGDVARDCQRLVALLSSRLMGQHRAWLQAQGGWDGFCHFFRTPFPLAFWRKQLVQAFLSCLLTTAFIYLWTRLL
Work on `CN1CCN(NC(=O)c2ccc([N+](=O)[O-])cc2Cl)CC1` yielded a displacement of 9.6%. `CCOc1ccc(NC(=O)c2cnn(-c3ccccc3)c2NC(=O)c2ccccc2F)cc1` was tested, and the displacement was 7.8%. `CC(C)c1ccc(/C=N/N=C2/NC(=O)C(Cc3ccccc3)S2)cc1` (centres undefined) gave a displacement of -0.3%. Work on `O=C1CC(N2CCN(C/C=C/c3ccccc3)CC2)C(=O)N1c1ccc(Cl)c(Cl)c1` (centres undefined) yielded a displacement of -1.4%. Work on `O=C(NC(=S)Nc1ccccc1C#Cc1ccccc1)c1ccc(Br)cc1` yielded a displacement of 22.3%. In the case of `Cc1cc2c(cc1Br)NC(=O)C2=O`, the displacement is reported as -2.1%. `CC1(C)CC(NC(=O)c2ccccc2F)CC(C)(C)N1` gave a displacement of -12.3%. With `CCN(CC)c1ccc(NC(=O)/C=C/c2cc(OC)ccc2OC)cc1` the displacement was 12.7%. Work on `O=C1C=C(c2ccccc2)CC(c2ccccc2)C1n1nnc2ccccc21` (centres undefined) yielded a displacement of -4.3%. `CCCC1=NN2C(=N)/C(=C/c3cccc(OCc4ccccc4F)c3)C(=O)N=C2S1` showed a displacement of 6%. With `Cc1c(-c2ccc(C=O)o2)ccc([N+](=O)[O-])c1C` the displacement was 12.2%. `CN1CCN(Cc2c(O)ccc3c(=O)c(-c4ccccc4)coc23)CC1` was tested, and the displacement was -1.7%. `Cc1ccc(C(=O)NCc2ccc(Cl)c(Cl)c2)o1` gave a displacement of -5.6%. Work on `COc1cccc(C(=O)Nc2ccccc2CO)c1` yielded a displacement of 4.5%. In the case of `Cc1ccc(C(=O)Nc2sc3c(c2C(=O)N2CCCCCC2)CCCC3)cc1`, the displacement is reported as 2%. `CSc1nc2[nH]c3c(c2c2nnnn12)CCCC3` was tested, and the displacement was 1.7%. Compound `O=[N+]([O-])c1ccc(C=Nc2ccc(Br)c(Cl)c2)s1` has a displacement of -0.3%. Work on `O=C(Nc1ccc(F)cc1)c1cc([N+](=O)[O-])ccc1Br` yielded a displacement of 13.3%. `COc1cc(N=Cc2c(O)n(-c3ccccc3F)c(=O)[nH]c2=O)cc(OC)c1OC` was tested, and the displacement was 3.1%. Compound `Cc1c(C(c2ccco2)c2c(C)n(C)n(-c3ccccc3)c2=O)c(=O)n(-c2ccccc2)n1C` has a displacement of -5.3%. Work on `COc1ccccc1/C=C1\SC(=S)N(NC(=O)Cc2ccccc2)C1=O` yielded a displacement of -3.8%. Compound `CCCCOc1ccc(S(=O)(=O)N(CC)CC)cc1` has a displacement of 10.6%. Work on `Cc1cc(Cl)ccc1OC(=O)c1cc2ccccc2o1` yielded a displacement of -0.5%. `COC(=O)c1cc(NC(=O)C(Sc2ccccc2)c2ccccc2)cc(C(=O)OC)c1` (centres undefined) showed a displacement of -7.9%. Compound `COCCNC(=O)CN(c1cccc(Br)c1)S(=O)(=O)c1ccccc1` has a displacement of 3.9%. `CN1C(=O)NC(=O)/C(=C\c2ccc(Cl)cc2Cl)C1=O` was tested, and the displacement was 3.8%. For `Nc1ccc(O)c(-c2nc3ccc(N)cc3[nH]2)c1`, the displacement was 25.4%. In the case of `Cc1cc(Br)c2c(c1)c(N=NC(N)=O)c(O)n2C`, the displacement is reported as 4.9%. Compound `O=C(Nc1cccc(Cl)c1Cl)c1cc(-c2cccs2)nc2ccccc12` has a displacement of 6.4%. Work on `COc1ccc(NC(=O)O/N=C\c2ccc(F)cc2)cc1` yielded a displacement of 6.5%. Work on `COc1cc(C(=O)Nc2cc(Cl)cc(Cl)c2)cc(OC)c1OC` yielded a displacement of -8%. `CC(C)c1ccc(N(CC(=O)Nc2ccccc2Cl)S(=O)(=O)c2ccccc2)cc1` showed a displacement of -3.7%. Work on `CCC1CCc2c(sc(NC(=O)c3c(-c4c(Cl)cccc4Cl)noc3C)c2C(N)=O)C1` (centres undefined) yielded a displacement of -12.1%. `O=C(CC1(O)C(=O)Nc2ccc(Br)cc21)c1cccs1` (centres undefined) was tested, and the displacement was -0.3%. Compound `N#CC(C#N)=C/C(=C/C(C#N)C#N)c1ccccc1` has a displacement of 109%. `CCOC(=O)c1c(C)sc(C=O)c1NC(=O)c1ccc(Cl)cc1` showed a displacement of -15.7%. For `NS(=O)(=O)c1ccc2c(c1)Cc1cc(S(N)(=O)=O)ccc1-2`, the displacement was -3.9%. `C=C(C)COc1ccc2oc(-c3ccccc3)c(C(=O)OCC)c2c1` showed a displacement of 7.6%. Compound `O=C1NC(=S)S/C1=C/c1cccc(OCc2ccccc2)c1` has a displacement of 5.4%. `O=C(Nc1ccccc1)C1CC(=O)N(C2CCCCC2)C1` (centres undefined) showed a displacement of 0.3%. `O=C1C2ON(c3ccccc3)C(c3cccc([N+](=O)[O-])c3)C2C(=O)N1Cc1ccccc1` (centres undefined) showed a displacement of -3.8%. For `COc1ccccc1-c1coc2c(CN3CCC(C)CC3)c(O)ccc2c1=O`, the displacement was 11.9%. `COC(=O)C1=C(C)N(C)C(=O)/C1=C\c1ccc2c(c1)OCO2` was tested, and the displacement was -0.7%. For `CCOC(=O)c1[nH]c(=O)[nH]c1Cn1ccnc1`, the displacement was -4.6%. `COc1ccc(C2CC(=O)C3=C(C2)Nc2ccccc2NC3c2cccc(F)c2)cc1` (centres undefined) gave a displacement of 6.4%. Compound `CCOc1ccc(/C=C2\C(=O)NC(=O)N(c3ccccc3C)C2=O)cc1Cl` has a displacement of 0.3%. `O=C1CC(O)(C(F)(F)F)Oc2c1ccc1ccccc21` (centres undefined) gave a displacement of 4.7%. Work on `COC(=O)c1cccc(-c2ccc(/C=C3\C(=O)N(c4ccc(S(N)(=O)=O)cc4)N=C3C)o2)c1` yielded a displacement of -5.2%. With `O=C(N/N=C/c1c(F)cccc1Cl)c1ccccc1I` the displacement was 15.3%. `CCOc1ccc(C(=O)Nc2cccc([N+](=O)[O-])c2)cc1Cl` gave a displacement of 11.6%. Work on `Cc1ccc(OCCn2c(SCc3nc4ccccc4[nH]3)nc3ccccc32)cc1` yielded a displacement of 18%. Compound `CCCCNC(=O)CCC(=O)NN(C)C` has a displacement of 7.6%. In the case of `O=C(O)CN1C(=O)/C(=C/c2cccc(OCc3ccccc3Cl)c2)SC1=S`, the displacement is reported as 5.1%. For `N=c1sc(Cc2ccc(Br)cc2)cn1CC(=O)c1ccc(Cl)cc1`, the displacement was -9.8%. Compound `COc1cc(/C=C2\C(=O)NC(=O)N(c3ccc(Cl)cc3)C2=O)c([N+](=O)[O-])cc1OC` has a displacement of 17.3%. `CCOC(=O)c1cc2n(c1N(C(C)=O)C(C)=O)-c1ccccc1C2=O` showed a displacement of -4.9%. `COc1ccc(CCNC2CC(=O)N(c3ccc(F)cc3)C2=O)cc1OC` (centres undefined) showed a displacement of 3.2%. With `CC1=C(C#N)C(=O)NC(=O)/C1=C\c1ccc(-c2cc(C)c(C)cc2[N+](=O)[O-])o1` the displacement was 9.4%. Compound `COc1cccc(-c2cc(C(=O)Nc3nn[nH]n3)c3ccccc3n2)c1` has a displacement of -0.9%. `C(=C\c1ccccc1)/CSc1nnc(-c2ccco2)n1-c1ccccc1` was tested, and the displacement was -12.5%. In the case of `COC(=O)c1ccccc1NC(=O)CN(c1cccc(Br)c1)S(=O)(=O)c1ccccc1`, the displacement is reported as 6.6%. Compound `CC(=O)Nc1ccc(C(=O)n2nc(C)cc2C)cc1` has a displacement of 2%. Compound `COc1ccc(C(=O)/C=C/Nc2cccc(Cl)c2Cl)cc1` has a displacement of 13.4%. `CCOc1ccccc1NC(=O)c1c(NC(=O)c2ccc(C)cc2)sc2c1CCCC2` showed a displacement of -0.3%. In the case of `COc1ccc(COc2ccc3c(C)cc(=O)oc3c2)cc1`, the displacement is reported as -1.5%. `O=C(Oc1c(Br)cc(Br)cc1/C=N/NC(=O)c1ccccn1)c1cccc(F)c1` showed a displacement of 18.3%. `Cc1ccc(C(=O)N/C(=C\c2cccc([N+](=O)[O-])c2)C(=O)N2CCOCC2)cc1` was tested, and the displacement was 0.8%. `COc1cc2c(cc1NC(=O)COc1ccc(C)cc1Br)oc1ccccc12` showed a displacement of 9.1%. Work on `COCCNC(=O)c1cc2nc(-c3ccc(OC)c(OC)c3)cc(C(F)(F)F)n2n1` yielded a displacement of -7.3%.
